From PMC10810860
These are yes or no findings as the source states them, for the method shown. In cells and extracts the contact can be indirect. Values belong to the binder of their own block, whether it stands above or below them.

The chains behind the UniProt entries cited, without tags or fusion partners.
UniProt Q16665: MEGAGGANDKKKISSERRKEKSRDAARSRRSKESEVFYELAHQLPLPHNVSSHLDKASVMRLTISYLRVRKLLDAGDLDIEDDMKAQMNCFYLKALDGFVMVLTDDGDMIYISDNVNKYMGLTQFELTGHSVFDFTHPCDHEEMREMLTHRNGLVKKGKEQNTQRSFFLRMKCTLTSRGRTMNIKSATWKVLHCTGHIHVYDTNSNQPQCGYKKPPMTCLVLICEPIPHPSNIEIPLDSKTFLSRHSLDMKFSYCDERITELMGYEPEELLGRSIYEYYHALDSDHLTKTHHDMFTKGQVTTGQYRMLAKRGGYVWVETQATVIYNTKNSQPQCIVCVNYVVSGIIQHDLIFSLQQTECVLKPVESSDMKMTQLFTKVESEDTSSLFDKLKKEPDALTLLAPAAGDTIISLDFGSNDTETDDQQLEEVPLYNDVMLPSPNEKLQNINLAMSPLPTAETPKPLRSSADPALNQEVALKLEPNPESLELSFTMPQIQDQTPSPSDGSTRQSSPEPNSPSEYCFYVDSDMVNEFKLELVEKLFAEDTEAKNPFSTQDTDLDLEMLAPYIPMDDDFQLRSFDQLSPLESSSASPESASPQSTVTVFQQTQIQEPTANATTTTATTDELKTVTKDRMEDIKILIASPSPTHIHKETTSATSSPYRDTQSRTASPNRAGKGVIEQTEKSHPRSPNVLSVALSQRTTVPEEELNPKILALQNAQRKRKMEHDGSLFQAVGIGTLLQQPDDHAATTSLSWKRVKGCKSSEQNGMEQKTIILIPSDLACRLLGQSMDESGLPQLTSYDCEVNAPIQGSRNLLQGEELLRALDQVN

What was measured:
[1] = biological target: HIF1α (hypoxia-inducible factor 1 alpha), full-length, expressed by transfection, Q16665; assay: co-IP; co-IP/IB from lysates of HEK293T cells transfected as indicated (antibody with Protein A/G agarose overnight, then immunoblot); details: remark: other sources report otherwise
[2] = biological target: HIF1α (hypoxia-inducible factor 1 alpha), full-length, expressed by transfection (UniProt Q16665); assay: as above

binding [1]: no binding
B1: HOIL-1L (large isoform of heme-oxidized iron regulatory protein 2 ubiquitin ligase 1), expressed by transfection, Q9BYM8-1 1-510 (protein)
chain: MDEKTKKAEEMALSLTRAVAGGDEQVAMKCAIWLAEQRVPLSVQLKPEVSPTQDIRLWVSVEDAQMHTVTIWLTVRPDMTVASLKDMVFLDYGFPPVLQQWVIGQRLARDQETLHSHGVRQNGDSAYLYLLSARNTSLNPQELQRERQLRMLEDLGFKDLTLQPRGPLEPGPPKPGVPQEPGRGQPDAVPEPPPVGWQCPGCTFINKPTRPGCEMCCRARPEAYQVPASYQPDEEERARLAGEEEALRQYQQRKQQQQEGNYLQHVQLDQRSLVLNTEPAECPVCYSVLAPGEAVVLRECLHTFCRECLQGTIRNSQEAEVSCPFIDNTYSCSGKLLEREIKALLTPEDYQRFLDLGISIAENRSAFSYHCKTPDCKGWCFFEDDVNEFTCPVCFHVNCLLCKAIHEQMNCKEYQEDLALRAQNDVAARQTTEMLKVMLQQGEAMRCPQCQIVVQKKDGCDWIRCTVCHTEICWVTKGPRWGPGGPGDTSGGCRCRVNGIPCHPSCQNCH

binding [2]: no binding
B2: Sharpin (SHANK-associated RH domain-interacting protein), expressed by transfection (protein, UniProt Q9H0F6 1-387)
chain: MAPPAGGAAAAASDLGSAAVLLAVHAAVRPLGAGPDAEAQLRRLQLSADPERPGRFRLELLGAGPGAVNLEWPLESVSYTIRGPTQHELQPPPGGPGTLSLHFLNPQEAQRWAVLVRGATVEGQNGSKSNSPPALGPEACPVSLPSPPEASTLKGPPPEADLPRSPGNLTEREELAGSLARAIAGGDEKGAAQVAAVLAQHRVALSVQLQEACFPPGPIRLQVTLEDAASAASAASSAHVALQVHPHCTVAALQEQVFSELGFPPAVQRWVIGRCLCVPERSLASYGVRQDGDPAFLYLLSAPREAPATGPSPQHPQKMDGELGRLFPPSLGLPPGPQPAASSLPSPLQPSWSCPSCTFINAPDRPGCEMCSTQRPCTWDPLAAAST
